# Assay results as given in the supplement of paper PMC8728848.
# This is one part of the list.
# B1: Microvirin-2 (Microcystis aeruginosa) (protein)
# chain: MPNFSHTCSSINYDPDSTILSAECQARDGEWLPTELRLSDHIGNIDGELQFGDQNFQETCQDCHLEFGDGEQSVWLVCTCQTMDGEWKSTQILLDSQIDNNDSQLEIGGSMPNFSHTCSSINYDPDSTILSAECQARDGEWLPTELRLSDHIGNIDGELQFGDQNFQETCQDCHLEFGDGEQSVWLVCTCQTMDGEWKSTQILLDSQIDNNDSQLEIG
# Legend:
# Assay in all cases: glycan array binding signal (z-score within array); higher = stronger binding
# Conditions in all cases: glycan notation: IUPAC condensed, linker removed
# [1] = target: Fuc(a1-2)Gal
# Summary of the method: (§1)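 The Consortium for Functional Glycomics database supplied 3228 glycan arrays, of which those lacking an available protein sequence were dropped. The binding signal, a within-array Z-score, was averaged across arrays of the same protein sequence and across linkers. Negative scores can be read as non-binding.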
# [2] = target: Fuc(a1-2)Gal(b1-3)GalNAc
# Summary of the method: as §1
# [3] = target: Fuc(a1-2)Gal(b1-3)GalNAc(a1-3)[Fuc(a1-2)]Gal(b1-4)Glc
# Summary of the method: as §1
# [4] = target: Fuc(a1-2)Gal(b1-3)GalNAc(a1-3)[Fuc(a1-2)]Gal(b1-4)GlcNAc
# Summary of the method: as §1
# [5] = target: Fuc(a1-2)Gal(b1-3)GalNAc(b1-3)Gal
# Summary of the method: as §1
# [6] = target: Fuc(a1-2)Gal(b1-3)GalNAc(b1-3)Gal(a1-4)Gal(b1-4)Glc
# Summary of the method: as §1
# [7] = target: Fuc(a1-2)Gal(b1-3)GalNAc(b1-4)[Neu5Ac(a2-3)]Gal(b1-4)Glc
# Summary of the method: as §1
# [8] = target: Fuc(a1-2)Gal(b1-3)GlcNAc
# Summary of the method: as §1
# [9] = target: Fuc(a1-2)Gal(b1-3)GlcNAc(b1-2)Man(a1-3)[Fuc(a1-2)Gal(b1-3)GlcNAc(b1-2)Man(a1-6)]Man(b1-4)GlcNAc(b1-4)GlcNAc
# Summary of the method: as §1
# [10] = target: Fuc(a1-2)Gal(b1-3)GlcNAc(b1-2)Man(a1-3)[Fuc(a1-2)Gal(b1-3)GlcNAc(b1-2)Man(a1-6)]Man(b1-4)GlcNAc(b1-4)[Fuc(a1-6)]GlcNAc
# Summary of the method: as §1
# [11] = target: Fuc(a1-2)Gal(b1-3)GlcNAc(b1-3)Gal(b1-4)Glc
# Summary of the method: as §1
# [12] = target: Fuc(a1-2)Gal(b1-3)GlcNAc(b1-3)GalNAc
# Summary of the method: as §1
# [13] = target: Fuc(a1-2)Gal(b1-3)GlcNAc(b1-3)[Fuc(a1-2)Gal(b1-3)GlcNAc(b1-6)]GalNAc
# Summary of the method: as §1
# [14] = target: Fuc(a1-2)Gal(b1-3)GlcNAc(b1-3)[Gal(b1-4)GlcNAc(b1-6)]Gal(b1-4)Glc
# Summary of the method: as §1
# [15] = target: Fuc(a1-2)Gal(b1-3)GlcNAc(b1-3)[Neu5Ac(a2-6)Gal(b1-4)GlcNAc(b1-6)]Gal(b1-4)Glc
# Summary of the method: as §1
# [16] = target: Fuc(a1-2)Gal(b1-3)GlcNAc6S
# Summary of the method: as §1
# [17] = target: Fuc(a1-2)Gal(b1-3)[Fuc(a1-4)]GlcNAc
# Summary of the method: as §1
# [18] = target: Fuc(a1-2)Gal(b1-3)[Fuc(a1-4)]GlcNAc(b1-2)Man(a1-3)[Fuc(a1-2)Gal(b1-3)[Fuc(a1-4)]GlcNAc(b1-2)Man(a1-3)]Man(b1-4)GlcNAc(b1-4)GlcNAc
# Summary of the method: as §1
# [19] = target: Fuc(a1-2)Gal(b1-3)[Fuc(a1-4)]GlcNAc(b1-2)Man(a1-3)[Fuc(a1-2)Gal(b1-3)[Fuc(a1-4)]GlcNAc(b1-2)Man(a1-6)]Man(b1-4)GlcNAc(b1-4)[Fuc(a1-6)]GlcNAc(b1-4)[Fuc(a1-6)]GlcNAc
# Summary of the method: as §1
# [20] = target: Fuc(a1-2)Gal(b1-3)[Fuc(a1-4)]GlcNAc(b1-3)[Fuc(a1-3)[Gal(b1-4)]GlcNAc(b1-6)]Gal(b1-4)Glc
# Summary of the method: as §1
# [21] = target: Fuc(a1-2)Gal(b1-3)[Fuc(a1-4)]GlcNAc(b1-3)[Gal(b1-4)GlcNAc(b1-6)]Gal(b1-4)Glc
# Summary of the method: as §1
# [22] = target: Fuc(a1-2)Gal(b1-4)Fuc(a1-3)]GlcNAc(b1-2)Man(a1-3)[Fuc(a1-2)Gal(b1-4)[Fuc(a1-3)]GlcNAc(b1-2)Man(a1-6)]Man(b1-4)GlcNAc(b1-4)GlcNAc
# Summary of the method: as §1
# [23] = target: Fuc(a1-2)Gal(b1-4)Glc
# Summary of the method: as §1
# [24] = target: Fuc(a1-2)Gal(b1-4)Glc6S
# Summary of the method: as §1
# [25] = target: Fuc(a1-2)Gal(b1-4)GlcNAc
# Summary of the method: as §1
# [26] = target: Fuc(a1-2)Gal(b1-4)GlcNAc(b1-2)Man
# Summary of the method: as §1
# [27] = target: Fuc(a1-2)Gal(b1-4)GlcNAc(b1-2)Man(a1-3)[Fuc(a1-2)Gal(b1-4)GlcNAc(b1-2)Man(a1-6)]Man(b1-4)GlcNAc(b1-4)GlcNAc
# Summary of the method: as §1
# [28] = target: Fuc(a1-2)Gal(b1-4)GlcNAc(b1-2)Man(a1-3)[Fuc(a1-2)Gal(b1-4)GlcNAc(b1-2)Man(a1-6)]Man(b1-4)GlcNAc(b1-4)[Fuc(a1-6)]GlcNAc
# Summary of the method: as §1
# [29] = target: Fuc(a1-2)Gal(b1-4)GlcNAc(b1-2)[Fuc(a1-2)Gal(b1-4)GlcNAc(b1-4)]Man(a1-3)[Fuc(a1-2)Gal(b1-4)GlcNAc(b1-2)Man(a1-6)]Man(b1-4)GlcNAc(b1-4)GlcNAc
# Summary of the method: as §1
# [30] = target: Fuc(a1-2)Gal(b1-4)GlcNAc(b1-3)Gal(b1-4)GlcNAc
# Summary of the method: as §1
# [31] = target: Fuc(a1-2)Gal(b1-4)GlcNAc(b1-3)Gal(b1-4)GlcNAc(b1-2)Man(a1-3)[Fuc(a1-2)Gal(b1-4)GlcNAc(b1-3)Gal(b1-4)GlcNAc(b1-2)Man(a1-6)]Man(b1-4)GlcNAc(b1-4)GlcNAc
# Summary of the method: as §1
# [32] = target: Fuc(a1-2)Gal(b1-4)GlcNAc(b1-3)Gal(b1-4)GlcNAc(b1-3)Gal(b1-4)GlcNAc
# Summary of the method: as §1
# [33] = target: Fuc(a1-2)Gal(b1-4)GlcNAc(b1-3)GalNAc
# Summary of the method: as §1
# [34] = target: Fuc(a1-2)Gal(b1-4)GlcNAc(b1-3)[Fuc(a1-2)Gal(b1-4)GlcNAc(b1-6)]GalNAc
# Summary of the method: as §1
# [35] = target: Fuc(a1-2)Gal(b1-4)GlcNAc(b1-3)[Fuc(a1-3)[Gal(b1-4)]GlcNAc(b1-6)]Gal(b1-4)Glc
# Summary of the method: as §1
# [36] = target: Fuc(a1-2)Gal(b1-4)GlcNAc(b1-6)GalNAc
# Summary of the method: as §1
# [37] = target: Fuc(a1-2)Gal(b1-4)GlcNAc6S
# Summary of the method: as §1
binder,measurement,setting,value
B1,glycan array binding signal (z-score),[1],-0.143
same,glycan array binding signal (z-score),[2],-0.137
same,glycan array binding signal (z-score),[3],-0.141
same,glycan array binding signal (z-score),[4],-0.135
same,glycan array binding signal (z-score),[5],-0.005
same,glycan array binding signal (z-score),[6],-0.136
same,glycan array binding signal (z-score),[7],-0.133
same,glycan array binding signal (z-score),[8],-0.139
same,glycan array binding signal (z-score),[9],0.021
same,glycan array binding signal (z-score),[10],0.239
same,glycan array binding signal (z-score),[11],-0.139
same,glycan array binding signal (z-score),[12],-0.125
same,glycan array binding signal (z-score),[13],-0.099
same,glycan array binding signal (z-score),[14],-0.139
same,glycan array binding signal (z-score),[15],-0.14
same,glycan array binding signal (z-score),[16],-0.093
same,glycan array binding signal (z-score),[17],-0.136
same,glycan array binding signal (z-score),[18],-0.068
same,glycan array binding signal (z-score),[19],-0.061
same,glycan array binding signal (z-score),[20],-0.137
same,glycan array binding signal (z-score),[21],-0.127
same,glycan array binding signal (z-score),[22],-0.106
same,glycan array binding signal (z-score),[23],-0.132
same,glycan array binding signal (z-score),[24],-0.135
same,glycan array binding signal (z-score),[25],-0.137
same,glycan array binding signal (z-score),[26],-0.13
same,glycan array binding signal (z-score),[27],-0.084
same,glycan array binding signal (z-score),[28],0.197
same,glycan array binding signal (z-score),[29],-0.032
same,glycan array binding signal (z-score),[30],-0.126
same,glycan array binding signal (z-score),[31],-0.09
same,glycan array binding signal (z-score),[32],-0.143
same,glycan array binding signal (z-score),[33],-0.097
same,glycan array binding signal (z-score),[34],-0.118
same,glycan array binding signal (z-score),[35],-0.131
same,glycan array binding signal (z-score),[36],-0.079
same,glycan array binding signal (z-score),[37],-0.127
